Measured values from the supplement of paper PMC4604168 (melanoma cell lines).
This is one part of the list. Many values rest on one well or one pass, so single values are uncertain.

Tests used:
Assay in all cases: cell count relative to DMSO control; melanoma cells; higher = more viable cells
Details in all cases: library dose: low library concentration; 72 h
MZ2-MEL = tested on: MZ2-MEL
MeWo = tested on: MeWo
RPMI7951 = tested on: RPMI7951
RVH-421 = tested on: RVH-421
SkMel28 = tested on: SkMel28
SkMel2 = tested on: SkMel2
SkMel30 = tested on: SkMel30
UACC62 = tested on: UACC62
WM115 = tested on: WM115
WM1716 = tested on: WM1716
WM1745 = tested on: WM1745
WM3526 = tested on: WM3526
WM3619 = tested on: WM3619
WM451Lu = tested on: WM451Lu
SkMel5 = tested on: SkMel5
UACC257 = tested on: UACC257
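Also: cell number obtained by counting DAPI-stained nuclei in high-throughput microscope images with image analysis software, screen run in 1,536-well plates.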

SMILES | cell count (MZ2-MEL) | cell count (MeWo) | cell count (RPMI7951) | cell count (RVH-421) | cell count (SkMel28) | cell count (SkMel2) | cell count (SkMel30) | cell count (UACC62) | cell count (WM115) | cell count (WM1716) | cell count (WM1745) | cell count (WM3526) | cell count (WM3619) | cell count (WM451Lu) | cell count (SkMel5) | cell count (UACC257)
NC(=O)c1ccc(N(C(N)=O)c2c(F)cccc2F)nc1-c1ccc(F)cc1F + CS(=O)(=O)CCNCc1ccc(-c2ccc3ncnc(Nc4ccc(OCc5cccc(F)c5)c(Cl)c4)c3c2)o1 [lapatinib] (first compound 0.4 µM, partner dose 0.8 µM) | 100% | 93.7% | 94.5% | 85.1% | 83.7% | 98.1% | 104% | 115% | 88.6% | 101% | 93.6% | 100% | 120% | 89% |  | 
NC(=O)c1ccc(N(C(N)=O)c2c(F)cccc2F)nc1-c1ccc(F)cc1F + C[C@]1(O)C[C@@H](c2nc(-c3ccc4ccc(-c5ccccc5)nc4c3)c3c(N)nccn32)C1 [OSI906] (first compound 0.4 µM, partner dose 0.4 µM) | 92% | 98.8% | 94.7% | 76.5% | 75.3% | 86.6% | 78.5% | 96.5% | 97.9% | 112% | 64.5% | 89.4% | 79.1% | 101% |  | 
NC(=O)c1ccc(N(C(N)=O)c2c(F)cccc2F)nc1-c1ccc(F)cc1F + Nc1nc(F)nc2c1ncn2[C@@H]1O[C@H](CO)[C@@H](O)[C@@H]1O [fludarabine] (first compound 0.4 µM, partner dose 0.2 µM) | 115% | 35.2% | 79.1% | 116% | 75.6% | 10.6% | 16.6% | 81.6% | 94% | 109% | 90.6% | 28.9% | 116% | 51.6% |  | 
CCCCCCCCc1ccc(CCC(N)(CO)CO)cc1 [fingolimod] + C=C(c1ccc(C(=O)O)cc1)c1cc2c(cc1C)C(C)(C)CCC2(C)C [Bexarotene] (first compound 2 µM, partner dose 2 µM) | 88.9% | 80.7% | 68.6% | 120% | 54.4% | 82.2% | 105% | 77.6% | 91.6% | 58.1% | 94.1% | 75% | 86% | 95.9% |  | 
CCCCCCCCc1ccc(CCC(N)(CO)CO)cc1 [fingolimod] + C[C@]1(c2nc3c(C(N)=O)cccc3[nH]2)CCCN1 [Veliparib] (first compound 2 µM, partner dose 1.4 µM) | 89.1% | 76.6% | 64.4% | 77.8% | 78.4% | 92.5% | 92.9% | 53.6% | 83.6% | 69.3% | 75.1% | 89.6% | 83.9% | 88.6% |  | 
NC(=O)c1ccc(N(C(N)=O)c2c(F)cccc2F)nc1-c1ccc(F)cc1F + CNC(=O)c1cc(Oc2ccc(NC(=O)Nc3ccc(Cl)c(C(F)(F)F)c3)cc2)ccn1 [sorafenib] (first compound 0.4 µM, partner dose 0.4 µM) | 87.4% | 96.5% | 87.3% | 75.1% | 88.4% | 95.7% | 106% | 112% | 94.6% | 94.1% | 93.6% | 88.4% | 80.8% | 93.4% |  | 
NC(=O)c1ccc(N(C(N)=O)c2c(F)cccc2F)nc1-c1ccc(F)cc1F + COc1cc2ncnc(Nc3ccc(Oc4ccccc4)cc3)c2cc1OC [SrcI1] (first compound 0.4 µM, partner dose 2 µM) | 92.2% | 103% | 97.9% | 90.4% | 68.1% | 114% | 113% | 79.9% | 91.4% | 126% | 95% | 108% | 118% | 96% | 98.8% | 95.6%
NC(=O)c1ccc(N(C(N)=O)c2c(F)cccc2F)nc1-c1ccc(F)cc1F + Cc1cc(Nc2cc(N3CCN(C)CC3)nc(/C=C/c3ccccc3)n2)n[nH]1 [ENMD2076] (first compound 0.4 µM, partner dose 0.04 µM) | 108% | 89.2% | 108% | 85% | 81.4% | 100% | 87.5% | 100% | 101% | 101% | 92.4% | 90.4% | 140% | 86.1% |  | 
NC(=O)c1ccc(N(C(N)=O)c2c(F)cccc2F)nc1-c1ccc(F)cc1F + Cn1nnc2c(C(N)=O)ncn2c1=O [temozolomide] (first compound 0.4 µM, partner dose 2 µM) | 93.8% | 97.2% | 97.1% | 74.7% | 88.9% | 98% | 92.4% | 80.5% | 92.7% | 90.2% | 102% | 87.7% | 122% | 88.3% |  | 
NC(=O)c1ccc(N(C(N)=O)c2c(F)cccc2F)nc1-c1ccc(F)cc1F + COc1ccc(C2=N[C@@H](c3ccc(Cl)cc3)[C@@H](c3ccc(Cl)cc3)N2C(=O)N2CCNC(=O)C2)c(OC(C)C)c1 [Nutlin-3] (first compound 0.4 µM, partner dose 0.1 µM) | 105% | 95.8% | 95.2% | 88.4% | 82.3% | 95% | 97.1% | 81% | 89.8% | 90.2% | 89.7% | 92.7% | 104% | 95.3% |  | 
Cc1ccc(NC(=O)c2cccc(N(C)C)c2)cc1NC(=O)c1ccc(O)cc1 + NC(=O)Nc1cc(-c2cccc(F)c2)sc1C(=O)N[C@H]1CCCNC1 [AZD7762] (first compound 2 µM, partner dose 0.02 µM) | 80.8% | 107% | 73.1% | 118% | 91.4% | 107% | 104% | 99.6% | 85.1% | 84.7% | 81.7% | 70.2% | 58.2% | 132% | 123% | 128%
NC(=O)c1ccc(N(C(N)=O)c2c(F)cccc2F)nc1-c1ccc(F)cc1F + O=C1NC(=O)/C(=C/c2ccc(-c3ccc(F)cc3O)o2)S1 [AS252424] (first compound 0.4 µM, partner dose 1 µM) | 101% | 95.6% | 96.9% | 79.1% | 88.2% | 104% | 110% | 99.8% | 99% | 99.9% | 89.4% | 107% | 108% | 108% | 92.9% | 113%
Cc1ccc(NC(=O)c2cccc(N(C)C)c2)cc1NC(=O)c1ccc(O)cc1 + C[C@@H]1CCN(C(=O)CC#N)C[C@@H]1N(C)c1ncnc2[nH]ccc12 [CP690550] (first compound 2 µM, partner dose 1 µM) | 87.4% | 103% | 70.1% | 114% | 107% | 112% | 103% | 99.1% | 98.5% | 96.4% | 87.5% | 108% | 98.4% | 116% | 109% | 123%
NC(=O)c1ccc(N(C(N)=O)c2c(F)cccc2F)nc1-c1ccc(F)cc1F + NC1(c2ccc(-c3nc4ccn5c(=O)[nH]nc5c4cc3-c3ccccc3)cc2)CCC1 [MK2206] (first compound 0.4 µM, partner dose 0.4 µM) | 102% | 68.3% | 83.2% | 58.8% | 59.5% | 93.1% | 74.6% | 72.1% | 73.5% | 87.6% | 91.5% | 62.8% | 87% | 83.4% |  | 
CCCCCCCCc1ccc(CCC(N)(CO)CO)cc1 [fingolimod] + Oc1nc(-c2ccc(C(F)(F)F)cc2)nc2c1CSCC2 [XAV939] (first compound 2 µM, partner dose 2 µM) | 88.1% | 108% | 61.4% | 17.9% | 89.4% | 90.2% | 91.1% | 72.6% | 93.8% | 54.6% | 66.2% | 67.6% | 87.7% | 115% | 86.2% | 100%
CCCCCCCCc1ccc(CCC(N)(CO)CO)cc1 [fingolimod] + CC(C)C[C@H](NC(=O)[C@H](Cc1ccccc1)NC(=O)c1cnccn1)B(O)O [Bortezomib] (first compound 2 µM, partner dose 0.001 µM) | 89.6% | 80.9% | 75.8% | 93.7% | 92.1% | 81.3% | 91% | 88.8% | 98.3% | 59.4% | 68.1% | 84% | 25.6% | 102% |  | 
NC(=O)c1ccc(N(C(N)=O)c2c(F)cccc2F)nc1-c1ccc(F)cc1F + Cn1c(Nc2ccc(C(F)(F)F)cc2)nc2cc(Oc3ccnc(-c4ncc(C(F)(F)F)[nH]4)c3)ccc21 [CHIR265] (first compound 0.4 µM, partner dose 0.08 µM) | 97.3% | 90.3% | 61.9% | 91% | 82.7% | 101% | 87% | 67.7% | 65.5% | 112% | 81.9% | 74.6% | 92.5% | 162% |  | 
NC(=O)c1ccc(N(C(N)=O)c2c(F)cccc2F)nc1-c1ccc(F)cc1F + CC(C)C[C@H](NC(=O)[C@H](Cc1ccccc1)NC(=O)c1cnccn1)B(O)O [Bortezomib] (first compound 0.4 µM, partner dose 0.001 µM) | 91.5% | 103% | 111% | 85.1% | 102% | 101% | 114% | 94.5% | 96.4% | 54.6% | 96.3% | 104% | 36.1% | 99.4% |  | 
Cc1ccc(NC(=O)c2cccc(N(C)C)c2)cc1NC(=O)c1ccc(O)cc1 + O=C(Nc1cccc(Cl)c1)Nc1ncc(CCNc2ncnc3ccsc23)s1 [SNS314] (first compound 2 µM, partner dose 0.0008 µM) | 76.5% | 94.6% | 71.1% | 103% | 106% | 111% | 94.2% | 97.7% | 64.4% | 112% | 96.9% | 104% | 108% | 78.8% | 95.5% | 81.8%
